# Test results: the supplement of paper PMC12217912
# The other results are listed elsewhere or left out. Sequences were assembled here from the parent chain. Values near 0.05 are background.
# B1: TEV protease; numbered along this chain (parent)
# chain: MGESLFKGPRDYNPISSSICHLTNESDGHTTSLYGIGFGPFIITNKHLFRRNNGTLVVQSLHGVFKVKDTTTLQQHLVDGRDMIIIRMPKDFPPFPQKLKFREPQREERICLVTTNFQTKSMSSMVSDTSCTFPSGDGIFWKHWIQTKDGQCGSPLVSTRDGFIVGIHSASNFTNTNNYFTSVPKNFMELLTNQEAQQWVSGWRLNADSVLWGGHKVFMVKPEEPFQPVKEATQL
# Variants of: B1
# Test: raw area under fraction-flipped curve 0-4 h after induction (AUC4h, not background-subtracted), DNA-recorder readout of cleavage of the substrate (dimensionless); higher = more cleavage of the substrate by the protease variant
# Settings: temperature: 34 °C; time window: 0-4 h after rhamnose induction
# 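Also: Bxb1 expression induced with 0.2% (w/v) L-rhamnose at OD600 near 0.5, cultures sampled hourly, flipped fraction per protease–substrate barcode pair counted by paired-end Illumina sequencing.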
Variant,area with substrate ENLYFES,area with substrate ENLYFFS,area with substrate ENLYFHS,area with substrate ENLYFIS,area with substrate ENLYFKS,area with substrate ENLYFNS,area with substrate ENLYFTS,area with substrate ENLYFWS,area with substrate ENLYFDS,area with substrate ENLYFRS,area with substrate ENLYFYS,area with substrate ENLYFGS,area with substrate ENLYFMS,area with substrate ENLYFPS,area with substrate ENLYFVS,area with substrate ENLYFLS,area with substrate ENLYFSS
P93F,0.0552,0.0674,0.0411,0.0469,0.0499,0.0825,0.051,0.0432,,,,,,,,,
G138C,,,,,0.0516,,,,0.0593,0.0594,,,,,,,
G214Q,,,,,,,0.0838,,0.0528,,0.0644,,,,,,
M83P,0.0499,0.155,0.0497,,0.0758,,0.0437,,,,0.0504,0.0518,0.0501,0.0451,0.0459,,
M83S,0.0636,0.0674,0.0558,0.0508,,0.0684,0.0429,0.06,0.0544,,0.0516,0.0649,0.0535,0.0562,,0.0647,
M83V,0.0507,,,0.0549,0.065,0.0703,0.0665,,0.0565,,0.0538,,0.0641,0.0551,0.0738,,0.0498
E231R,0.0677,0.0762,,0.0583,0.063,0.0707,,0.0556,,,0.0387,,0.0697,0.0481,0.0593,0.0469,0.0406
P96G,0.0624,,0.0601,0.0548,0.0677,,0.0901,0.0866,0.0666,,,,0.0745,0.058,,,
N206K,,,,0.0577,,,,,0.0396,,,,0.0531,0.0878,0.0536,,
N206E,,0.0652,0.0593,0.0571,,0.0648,0.0666,,0.0495,0.0657,0.0445,0.0643,0.0699,,0.056,,0.0667
Q197S,0.0601,0.0612,0.054,0.0509,,0.062,0.0544,0.0577,0.0614,,0.0519,0.0575,0.0684,0.0665,0.059,,
I42T,0.0415,0.0586,,0.0474,0.0396,0.0551,0.0618,0.04,0.0442,0.0641,0.0569,,0.0432,0.0531,0.0459,,
V78T,,0.0754,,0.0535,,,0.0572,,0.167,,0.0903,0.0508,0.0656,0.0282,,,
V58E,,,0.0415,0.0464,,,,,0.0499,,,,,,,,
K7I,0.0573,0.0884,0.0533,0.0559,0.067,0.0633,,,,,,,0.0728,,0.0599,,
N172F,,,0.0673,0.0442,,,,0.0603,0.0535,0.0574,,,0.0666,,,0.0552,0.0471
P184T,0.0817,0.0687,0.0658,0.0591,,,0.0538,0.0665,,,0.0551,,0.0771,0.0703,,,0.0482
N177K,,0.0561,0.0657,,,0.0567,0.0494,,0.0715,,0.0573,0.0537,,0.0575,,,
I164R,0.0557,0.0561,0.0541,0.0487,0.0622,0.0565,0.045,0.051,,0.0565,0.0735,,0.052,0.055,,0.054,

Variant,area with substrate ENLYFES,area with substrate ENLYFFS,area with substrate ENLYFHS,area with substrate ENLYFIS,area with substrate ENLYFKS,area with substrate ENLYFNS,area with substrate ENLYFTS,area with substrate ENLYFWS,area with substrate ENLYFDS,area with substrate ENLYFRS,area with substrate ENLYFYS,area with substrate ENLYFGS,area with substrate ENLYFMS,area with substrate ENLYFPS,area with substrate ENLYFVS,area with substrate ENLYFLS,area with substrate ENLYFSS
N186K,0.0741,0.0804,,0.0592,0.0951,,0.0853,0.0456,,0.121,,,,0.0689,,,
F180A,0.0652,,0.0771,0.0658,0.0522,,,0.0553,,0.0641,,,0.0732,0.0585,,0.0746,
F180R,0.0543,0.0571,0.0632,0.0483,0.0471,0.0515,0.0475,,,0.0561,,,,0.0482,0.0456,,0.0532
I145W,0.057,0.0566,0.0593,0.0428,0.0681,,0.0529,,0.0461,0.0525,0.0564,,,0.0561,0.0589,0.0537,0.0555
Y179N,0.0615,,,0.0579,0.0622,0.0482,0.0584,,0.0897,,,0.0532,,,,0.0624,0.0539
T147D,,,,,,,,,0.0597,0.0574,,,,0.046,,,0.0716
R51G,0.0614,0.0645,,0.0633,,,0.0712,,,0.0526,,,,,,0.0667,0.054
L235G,0.063,0.048,,0.0441,,,0.0621,,,0.0467,,,0.0634,,0.0598,,
L235S,0.108,0.0756,0.0465,0.0639,,,,0.0735,0.0555,,,0.0907,,0.0612,,,0.0673
S158R,0.0548,0.0619,,,,0.0362,,0.04,0.0384,0.0594,,0.0606,0.0424,0.0388,0.0483,,
R87P,,0.0499,,,0.0816,0.0558,0.0504,,0.0571,,,0.0486,0.0533,0.049,,,
M122C,,0.0738,0.0501,0.0592,0.0691,0.0605,0.0595,0.0695,0.0542,0.0557,0.0626,,0.058,0.052,0.0645,0.0649,0.0552
M122S,0.0661,0.0534,,0.0283,0.0631,0.0567,0.0599,,,,0.045,0.0675,0.0649,0.0793,,0.0585,
G35Q,,,,0.0432,,0.0319,,,0.0541,,,,,0.0228,,,
V217R,0.0689,0.07,0.047,0.0704,0.0858,0.0539,0.065,,0.0676,0.0654,,0.0668,0.0684,0.0564,,,0.0625
M88K,0.0451,0.0331,0.0419,,,0.0539,,0.0561,,0.0533,,0.047,0.0577,,0.0881,,0.0352
T115P,,,,0.0543,,,,,0.059,0.0546,0.044,0.0548,,0.0999,0.0508,,0.0638
P104Q,0.0531,,0.0416,,0.0305,,,0.0381,,,,0.0408,0.0537,,,,
G153W,,0.0525,,0.0597,0.0484,,,0.0737,0.054,0.0395,,,,,,,
